# The list shows a part of the results.
# Experiments:
# Experiment in all cases: glycan array binding signal (z-score within array); higher = stronger binding
# Settings in all cases: glycan notation: IUPAC condensed, linker removed
# [1] = molecular target: Fuc(a1-2)[GalNAc(a1-3)]Gal(b1-3)GlcNAc(b1-6)GalNAc
# Method in brief: (§1)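 The binding signal is a Z-score computed within each array. Data were drawn from 3228 arrays in the Consortium for Functional Glycomics database, restricted to those with a known protein sequence. Scores were averaged over arrays of the same protein sequence at different concentrations or buffers, and over linkers, and negative values can be taken as non-binding.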
# [2] = molecular target: Fuc(a1-2)[GalNAc(a1-3)]Gal(b1-4)Glc
# Method in brief: as §1
# [3] = molecular target: Fuc(a1-2)[GalNAc(a1-3)]Gal(b1-4)GlcNAc
# Method in brief: as §1
# [4] = molecular target: Fuc(a1-2)[GalNAc(a1-3)]Gal(b1-4)GlcNAc(b1-2)Man
# Method in brief: as §1
# [5] = molecular target: Fuc(a1-2)[GalNAc(a1-3)]Gal(b1-4)GlcNAc(b1-2)Man(a1-3)[Fuc(a1-2)[GalNAc(a1-3)]Gal(b1-4)GlcNAc(b1-2)Man(a1-6)]Man(b1-4)GlcNAc(b1-4)GlcNAc
# Method in brief: as §1
# [6] = molecular target: Fuc(a1-2)[GalNAc(a1-3)]Gal(b1-4)GlcNAc(b1-2)Man(a1-3)[Fuc(a1-2)[GalNAc(a1-3)]Gal(b1-4)GlcNAc(b1-2)Man(a1-6)]Man(b1-4)GlcNAc(b1-4)[Fuc(a1-6)]GlcNAc
# Method in brief: as §1
# [7] = molecular target: Fuc(a1-2)[GalNAc(a1-3)]Gal(b1-4)GlcNAc(b1-3)Gal(b1-4)GlcNAc
# Method in brief: as §1
# [8] = molecular target: Fuc(a1-2)[GalNAc(a1-3)]Gal(b1-4)GlcNAc(b1-3)Gal(b1-4)GlcNAc(b1-3)Gal(b1-4)GlcNAc
# Method in brief: as §1
# [9] = molecular target: Fuc(a1-2)[GalNAc(a1-3)]Gal(b1-4)GlcNAc(b1-3)GalNAc
# Method in brief: as §1
# [10] = molecular target: Fuc(a1-2)[GalNAc(a1-3)]Gal(b1-4)GlcNAc(b1-3)[Fuc(a1-2)[GalNAc(a1-3)]Gal(b1-4)GlcNAc(b1-6)]GalNAc
# Method in brief: as §1
# [11] = molecular target: Fuc(a1-2)[GalNAc(a1-3)]Gal(b1-4)GlcNAc(b1-6)GalNAc
# Method in brief: as §1
# [12] = molecular target: Fuc(a1-2)[GalNAc(a1-3)]Gal(b1-4)[Fuc(a1-3)]GlcNAc
# Method in brief: as §1
# [13] = molecular target: Fuc(a1-2)[GalNAc(a1-3)]Gal(b1-4)[Fuc(a1-3)]GlcNAc(b1-3)GalNAc
# Method in brief: as §1
# [14] = molecular target: Fuc(a1-2)[GalNAc(a1-4)]Gal(b1-4)GlcNAc
# Method in brief: as §1
# [15] = molecular target: Fuc(a1-2)[GalNAc(b1-3)]Gal
# Method in brief: as §1
# Fuc(a1-3)GlcNAc = molecular target: Fuc(a1-3)GlcNAc
# Method in brief: as §1
# [16] = molecular target: Fuc(a1-3)[Gal(b1-4)]Glc6S
# Method in brief: as §1
# [17] = molecular target: Fuc(a1-3)[Gal(b1-4)]GlcNAc
# Method in brief: as §1
# [18] = molecular target: Fuc(a1-3)[Gal(b1-4)]GlcNAc(b1-2)Man
# Method in brief: as §1
# [19] = molecular target: Fuc(a1-3)[Gal(b1-4)]GlcNAc(b1-2)Man(a1-3)[Fuc(a1-3)[Gal(b1-4)]GlcNAc(b1-2)Man(a1-6)]Man(b1-4)GlcNAc(b1-4)GlcNAc
# Method in brief: as §1
# [20] = molecular target: Fuc(a1-3)[Gal(b1-4)]GlcNAc(b1-2)Man(a1-3)[Fuc(a1-3)[Gal(b1-4)]GlcNAc(b1-2)Man(a1-6)]Man(b1-4)GlcNAc(b1-4)[Fuc(a1-6)]GlcNAc
# Method in brief: as §1
# [21] = molecular target: Fuc(a1-3)[Gal(b1-4)]GlcNAc(b1-3)Gal(b1-3)[Fuc(a1-4)]GlcNAc
# Method in brief: as §1
# [22] = molecular target: Fuc(a1-3)[Gal(b1-4)]GlcNAc(b1-3)Gal(b1-4)[Fuc(a1-3)]GlcNAc
# Method in brief: as §1
# [23] = molecular target: Fuc(a1-3)[Gal(b1-4)]GlcNAc(b1-3)Gal(b1-4)[Fuc(a1-3)]GlcNAc(b1-3)Gal(b1-4)[Fuc(a1-3)]GlcNAc
# Method in brief: as §1
# [24] = molecular target: Fuc(a1-3)[Gal(b1-4)]GlcNAc(b1-3)GalNAc
# Method in brief: as §1
# [25] = molecular target: Fuc(a1-3)[Gal(b1-4)]GlcNAc(b1-6)GalNAc
# Method in brief: as §1
# [26] = molecular target: Fuc(a1-3)[Gal(b1-4)]GlcNAc(b1-6)[Gal(b1-3)GlcNAc(b1-3)]Gal(b1-4)Glc
# Method in brief: as §1
# [27] = molecular target: Fuc(a1-3)[Gal(b1-4)]GlcNAc6S
# Method in brief: as §1
# [28] = molecular target: Fuc(a1-3)[Gal3S(b1-4)]Glc
# Method in brief: as §1
# [29] = molecular target: Fuc(a1-3)[Gal3S(b1-4)]GlcNAc
# Method in brief: as §1
# [30] = molecular target: Fuc(a1-3)[Gal3S(b1-4)]GlcNAc6S
# Method in brief: as §1
# [31] = molecular target: Fuc(a1-3)[GalNAc(b1-4)]GlcNAc
# Method in brief: as §1
# [32] = molecular target: Fuc(a1-3)[GalNAc(b1-4)]GlcNAc6S
# Method in brief: as §1
# Fuc(a1-4)GlcNAc = molecular target: Fuc(a1-4)GlcNAc
# Method in brief: as §1
# Fuc(b1-3)GlcNAc = molecular target: Fuc(b1-3)GlcNAc
# Method in brief: as §1
# Gal(a1-2)Gal = molecular target: Gal(a1-2)Gal
# Method in brief: as §1
# Gal(a1-3)Gal = molecular target: Gal(a1-3)Gal
# Method in brief: as §1
# Gal(a1-3)Gal(b1-3)GlcNAc = molecular target: Gal(a1-3)Gal(b1-3)GlcNAc
# Method in brief: as §1
# [33] = molecular target: Gal(a1-3)Gal(b1-3)GlcNAc(b1-2)Man
# Method in brief: as §1
# [34] = molecular target: Gal(a1-3)Gal(b1-3)GlcNAc(b1-2)Man(a1-3)[Gal(a1-3)Gal(b1-3)GlcNAc(b1-2)Man(a1-6)]Man(b1-4)GlcNAc(b1-4)GlcNAc
# Method in brief: as §1
# [35] = molecular target: Gal(a1-3)Gal(b1-3)GlcNAc(b1-3)GalNAc
# Method in brief: as §1
# [36] = molecular target: Gal(a1-3)Gal(b1-3)GlcNAc(b1-6)GalNAc
# Method in brief: as §1
# [37] = molecular target: Gal(a1-3)Gal(b1-3)[Fuc(a1-4)]GlcNAc(b1-2)Man(a1-3)[Gal(a1-3)Gal(b1-3)[Fuc(a1-4)]GlcNAc(b1-2)Man(a1-6)]Man(b1-4)GlcNAc(b1-4)GlcNAc
# Method in brief: as §1
# Gal(a1-3)Gal(b1-4)Glc = molecular target: Gal(a1-3)Gal(b1-4)Glc
# Method in brief: as §1
# Gal(a1-3)Gal(b1-4)GlcNAc = molecular target: Gal(a1-3)Gal(b1-4)GlcNAc
# Method in brief: as §1
binder,measurement,setting,value
GNL (Galanthus nivalis) (protein) MGHHHHHHHHYGTLENGHWLMVGMSIFSKDRTVELRMQDDGKLAIYYNDHCAWQSTAQQVNNAKGAVMQGDGNFCIYDKNGKATWHTNTAAPSGDSHTFVSVQDDGNLVLYKNNGATPIWSSKSNK,glycan array binding signal (z-score),[1],-0.294
same,glycan array binding signal (z-score),[2],-0.198
same,glycan array binding signal (z-score),[3],-0.211
same,glycan array binding signal (z-score),[4],-0.244
same,glycan array binding signal (z-score),[5],-0.066
same,glycan array binding signal (z-score),[6],-0.207
same,glycan array binding signal (z-score),[7],-0.247
same,glycan array binding signal (z-score),[8],-0.209
same,glycan array binding signal (z-score),[9],-0.142
same,glycan array binding signal (z-score),[10],-0.262
same,glycan array binding signal (z-score),[11],-0.302
same,glycan array binding signal (z-score),[12],-0.274
same,glycan array binding signal (z-score),[13],-0.162
same,glycan array binding signal (z-score),[14],-0.233
same,glycan array binding signal (z-score),[15],-0.232
same,glycan array binding signal (z-score),Fuc(a1-3)GlcNAc,-0.235
same,glycan array binding signal (z-score),[16],-0.266
same,glycan array binding signal (z-score),[17],-0.252
same,glycan array binding signal (z-score),[18],-0.18
same,glycan array binding signal (z-score),[19],0.774
same,glycan array binding signal (z-score),[20],-0.176
same,glycan array binding signal (z-score),[21],-0.245
same,glycan array binding signal (z-score),[22],-0.208
same,glycan array binding signal (z-score),[23],-0.24
same,glycan array binding signal (z-score),[24],-0.167
same,glycan array binding signal (z-score),[25],-0.213
same,glycan array binding signal (z-score),[26],-0.224
same,glycan array binding signal (z-score),[27],-0.239
same,glycan array binding signal (z-score),[28],-0.237
same,glycan array binding signal (z-score),[29],-0.069
same,glycan array binding signal (z-score),[30],-0.266
same,glycan array binding signal (z-score),[31],0.274
same,glycan array binding signal (z-score),[32],-0.181
same,glycan array binding signal (z-score),Fuc(a1-4)GlcNAc,-0.198
same,glycan array binding signal (z-score),Fuc(b1-3)GlcNAc,-0.156
same,glycan array binding signal (z-score),Gal(a1-2)Gal,-0.287
same,glycan array binding signal (z-score),Gal(a1-3)Gal,-0.245
same,glycan array binding signal (z-score),Gal(a1-3)Gal(b1-3)GlcNAc,-0.269
same,glycan array binding signal (z-score),[33],-0.211
same,glycan array binding signal (z-score),[34],-0.127
same,glycan array binding signal (z-score),[35],-0.231
same,glycan array binding signal (z-score),[36],-0.22
same,glycan array binding signal (z-score),[37],-0.108
same,glycan array binding signal (z-score),Gal(a1-3)Gal(b1-4)Glc,-0.279
same,glycan array binding signal (z-score),Gal(a1-3)Gal(b1-4)GlcNAc,-0.275
